# Measured values published in article PMC4336329 (PLoS ONE, 2015).
# The campaign covered roughly 310,000 compounds. About 2,200 (0.71%) showed an effect of 50% or more. Effects have a minus sign here. Some of the results follow.
# Target: human ether-à-go-go-related gene (hERG) potassium channel (human, UniProt Q12809)
# Test: primary screen, population patch clamp on CHO cells stably expressing hERG
# Sequence of human ether-à-go-go-related gene (hERG) potassium channel (Q12809 whole entry, looked up): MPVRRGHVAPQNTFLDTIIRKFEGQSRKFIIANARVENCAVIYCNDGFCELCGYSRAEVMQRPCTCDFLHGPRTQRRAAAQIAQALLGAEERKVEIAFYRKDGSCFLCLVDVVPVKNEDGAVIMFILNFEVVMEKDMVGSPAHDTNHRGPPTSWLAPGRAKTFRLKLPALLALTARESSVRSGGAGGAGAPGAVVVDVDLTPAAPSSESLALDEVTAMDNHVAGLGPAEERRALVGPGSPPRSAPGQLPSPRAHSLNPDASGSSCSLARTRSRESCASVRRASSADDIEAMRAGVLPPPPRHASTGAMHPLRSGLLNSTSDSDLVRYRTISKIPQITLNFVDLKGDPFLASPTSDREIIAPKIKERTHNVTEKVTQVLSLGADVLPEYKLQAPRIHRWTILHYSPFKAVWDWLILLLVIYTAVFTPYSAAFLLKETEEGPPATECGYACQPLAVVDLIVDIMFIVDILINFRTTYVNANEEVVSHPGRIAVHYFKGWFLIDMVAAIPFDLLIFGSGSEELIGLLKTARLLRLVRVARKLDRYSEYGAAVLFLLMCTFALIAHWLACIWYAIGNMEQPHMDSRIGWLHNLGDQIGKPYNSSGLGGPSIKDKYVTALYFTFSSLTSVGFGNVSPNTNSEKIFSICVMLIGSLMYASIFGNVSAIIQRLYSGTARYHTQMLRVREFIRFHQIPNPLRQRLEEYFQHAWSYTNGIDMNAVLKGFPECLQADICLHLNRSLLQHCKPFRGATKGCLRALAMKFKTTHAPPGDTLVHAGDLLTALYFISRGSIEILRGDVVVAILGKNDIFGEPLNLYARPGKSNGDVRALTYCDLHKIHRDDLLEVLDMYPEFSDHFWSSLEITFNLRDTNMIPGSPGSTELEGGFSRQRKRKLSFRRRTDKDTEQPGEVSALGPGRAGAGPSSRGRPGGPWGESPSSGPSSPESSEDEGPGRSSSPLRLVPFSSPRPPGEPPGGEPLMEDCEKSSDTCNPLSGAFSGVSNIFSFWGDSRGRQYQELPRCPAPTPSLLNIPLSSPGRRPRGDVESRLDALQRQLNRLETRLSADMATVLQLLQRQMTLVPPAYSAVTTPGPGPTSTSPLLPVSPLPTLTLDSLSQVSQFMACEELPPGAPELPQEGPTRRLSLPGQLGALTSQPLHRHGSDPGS
row,Compound,"hERG current change (%, negative = inhibition) at 1uM [%]"
1,Cc1cc(NC(=O)c2ccc3nc(C)sc3c2)no1,9.35
2,COC(=O)c1ccccc1OCCOc1ccccc1C(=O)OC,9.72
3,O=C(CC1C(=O)NCCN1Cc1cccc(Oc2ccccc2)c1)NCCc1cnccn1 (centres unmarked),15
4,C/C=C/c1ccc(OCCCCN2CCC(C)CC2)c(OC)c1,-46.5
5,COc1cccc(C2Nc3ccccc3NC3=C2C(=O)CC(C)(C)C3)c1OC (centres unmarked),9.22
6,COc1ccc(-c2cc(C(=O)Nc3cccnc3Cl)no2)cc1,13.3
7,Cc1cccc(NC(=O)c2ccc3ccccc3n2)n1,6.32
8,COC(=O)c1sc2ccccc2c1NC(=O)c1ccc(S(=O)(=O)N2CCCC(C)C2)cc1 (centres unmarked),1.19
9,COc1cccc(NC(=O)CN(C)C(=O)C23CC4CC(CC(Cl)(C4)C2)C3)c1,6.83
10,COc1cnn(-c2cccc(C)c2)c(=O)c1Cl,12.4
11,CCCCNc1c(-c2ccc(SC3CCCCC3)c(OC)c2)nc2ccc(Cl)cn12.O=C(O)C(F)(F)F,7.4
12,CN(Cc1ccccc1)S(=O)(=O)c1ccc2c(c1)n(C)c(=O)n2C,9.04
13,CC(C)C(c1nnnn1Cc1ccccc1)N1CCN(Cc2ccc3c(c2)OCO3)CC1 (centres unmarked),-6.86
14,CC(=O)Nc1c(F)c(F)c(F)c(F)c1F,9.7
15,CC1Oc2ccccc2N(CC(=O)N2CCCCCC2)C1=O (centres unmarked),14.2
16,Cn1nnnc1Sc1ncnc2scc(-c3ccccc3Cl)c12,12.7
17,C(=N/N1CCN(c2ccccc2)CC1)/c1ccncc1,5.3
18,OC(CNCc1ccccc1)COc1ccccc1 (centres unmarked),5.36
19,CN1CCN(C(CNS(=O)(=O)c2ccc(Cl)cc2)c2cccnc2)CC1 (centres unmarked),-5.16

row,Compound,"hERG current change (%, negative = inhibition) at 1uM [%]"
1,CCCc1cc(C(=O)N/N=C/c2ccc(C)o2)c2ccccc2n1,7.09
2,Cc1nn(CC(=O)NCCCN2CCC(Cc3ccccc3)CC2)c(=O)c2cc(-c3ccccc3)nn12,-19.3
3,Cc1ccc(C(=O)Nc2ccncc2)c(C)c1,14.9
4,CC(C)(C)OC(=O)NC(CC(=O)OCc1ccccc1)C(=O)O (centres unmarked),11.6
5,CN(C)CCN(C(=O)c1ccc(C(=O)c2ccccc2)cc1)c1nc2cc3c(cc2s1)OCCO3.Cl,6.13
6,CC(=O)Nc1ccc(S(=O)(=O)NCC(=O)NNC(=O)COc2ccccc2Cl)cc1,-2.81
7,N#Cc1cnn2cc(CCN3CCOCC3)c(-c3ccc(F)cc3)nc12,-0.5
8,COCCN(Cc1nc2ccccc2c(=O)[nH]1)C(=O)c1cccc(S(=O)(=O)N2CCCC2)c1,3.61
9,CCOC(=O)C1=C(C)N(C)C(=O)NC1c1c(C)nn(-c2ccc(C)cc2)c1Cl (centres unmarked),10.9
10,S=c1[nH]nc([C@@H]2C[C@H]2c2ccccc2)n1-c1ccccc1,14
11,COc1ccc(N=Nc2nc3ccc(Br)cc3n2C)cc1,19.6
12,CN(C)CCN(CC1CCCN(Cc2ccccc2F)C1)C(=O)c1ccc(Cl)cc1 (centres unmarked),13.4
13,CCOc1ccc2nc(NC(=O)C(CCSC)NS(=O)(=O)c3cccs3)sc2c1 (centres unmarked),5.25
14,CCOC(=O)C(=CNc1nc(-c2ccc3ccccc3c2)cs1)C(=O)OCC,11.6
15,C/C(=N\NC(=O)Cc1c[nH]c2ccccc12)c1ccc2ccccc2c1,8.01
16,O=C(Cn1c(=O)n(CC2CCCO2)c(=O)c2ccccc21)N1CCN(c2ccccc2)CC1 (centres unmarked),-4.29
17,CCCCOc1ccc(C(=O)OCC(=O)Nc2cc(C)c(C)cc2[N+](=O)[O-])cc1,6.48
18,NC(=O)C1=C[C@@H](C2CCCCC2)C[C@@H](OCCCCO)O1,14.2
19,O=C(N/N=C/c1ccc([N+](=O)[O-])o1)c1ccccc1-n1cccc1,1.53

row,Compound,"hERG current change (%, negative = inhibition) at 1uM [%]"
1,CC1(C)CC(=O)C=C(NCc2ccc(Cl)c(Cl)c2)C1,1.69
2,Cc1nnc(SCC(=O)NCCc2ccccc2)s1,13.9
3,COC(=O)c1cn(CCC#N)nc1-c1ccc2ccccc2c1,5.43
4,CC(=O)N1c2ccc(S(=O)(=O)N3CCCC(C(=O)Nc4cccc(F)c4)C3)cc2CC1C (centres unmarked),1.69
5,NC(=O)[C@@H]1CCCN1Cc1c(C(=O)N2CCc3ccccc3C2)nc2ccc(Cl)cn12,8.27
6,CCCC(=O)c1cc2ccccc2oc1=O,10.3
7,O=C(CSc1nnc(CNC(=O)c2ccc(F)cc2)o1)Nc1ccc2c(c1)OCCO2,16.9
8,O=C(O)CC(NC(=O)C12CC3CC(CC(C3)C1)C2)c1cccc([N+](=O)[O-])c1 (centres unmarked),6.45
9,COc1ccc(O)c(C(=O)c2coc(=N)c(C(=O)Nc3ccc(SC(F)F)cc3)c2)c1,-15.5
10,Cc1ccc(NC(=S)/N=C(\N)Nc2nc(C)c3ccccc3n2)cc1C,-2.58
11,CCOC(=O)C1=C(c2ccccc2)NC(SCC(=O)NC2CCCCC2)=C(C#N)C1c1ccco1 (centres unmarked),10.2
12,CCC(=O)NC(=S)N1CCN(c2ccc([N+](=O)[O-])cc2Cl)CC1,-11.8
13,Cc1ccc(N(C)C(=O)N2CCN(S(=O)(=O)c3c(C)cc(C)cc3C)CC2)cc1,1.4
14,CN(C)C(=O)Oc1ccc(OC(=O)N(C)C)cc1,6.24
15,CCC1CCCCN1C(=O)c1cc2cc(Br)ccc2oc1=O (centres unmarked),-3.33
16,COC(=O)c1ccc(CSc2nnnn2-c2ccccc2)o1,14.6
17,CC(=O)c1cccc(NC(=S)N2CCCC2)c1,9.48
18,COc1cccc2cc(C(=O)CC3(O)C(=O)N(Cc4ccccc4)c4ccccc43)c(=O)oc12 (centres unmarked),9.51
